Structures are written as SMILES. In all, about 110,000 compounds were measured (“z-score”: median about -0.1, highest 2% from about 2 on). This is one part of the list. The source made the active and inactive calls.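 The calls were made as follows: active = z-score in the third read window above 3 or below -3; inactive = the rest.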

The target in this test is Metabotropic glutamate receptor 8 (Rattus norvegicus) (UniProt P70579). Kind of test: rat mGluR8 modulators via GIRK flux, primary screen, cell-based, thallium flux, HTS (AID 488969). Particulars: HEK293 rat mGluR8, GIRK (G protein-gated inwardly rectifying potassium channel) thallium flux, FluoZin2; at 10 µM; stronger effect = higher value; submaximal glutamate (EC20) added with thallium.
UniProt P70579, sequence (P70579 whole entry, looked up): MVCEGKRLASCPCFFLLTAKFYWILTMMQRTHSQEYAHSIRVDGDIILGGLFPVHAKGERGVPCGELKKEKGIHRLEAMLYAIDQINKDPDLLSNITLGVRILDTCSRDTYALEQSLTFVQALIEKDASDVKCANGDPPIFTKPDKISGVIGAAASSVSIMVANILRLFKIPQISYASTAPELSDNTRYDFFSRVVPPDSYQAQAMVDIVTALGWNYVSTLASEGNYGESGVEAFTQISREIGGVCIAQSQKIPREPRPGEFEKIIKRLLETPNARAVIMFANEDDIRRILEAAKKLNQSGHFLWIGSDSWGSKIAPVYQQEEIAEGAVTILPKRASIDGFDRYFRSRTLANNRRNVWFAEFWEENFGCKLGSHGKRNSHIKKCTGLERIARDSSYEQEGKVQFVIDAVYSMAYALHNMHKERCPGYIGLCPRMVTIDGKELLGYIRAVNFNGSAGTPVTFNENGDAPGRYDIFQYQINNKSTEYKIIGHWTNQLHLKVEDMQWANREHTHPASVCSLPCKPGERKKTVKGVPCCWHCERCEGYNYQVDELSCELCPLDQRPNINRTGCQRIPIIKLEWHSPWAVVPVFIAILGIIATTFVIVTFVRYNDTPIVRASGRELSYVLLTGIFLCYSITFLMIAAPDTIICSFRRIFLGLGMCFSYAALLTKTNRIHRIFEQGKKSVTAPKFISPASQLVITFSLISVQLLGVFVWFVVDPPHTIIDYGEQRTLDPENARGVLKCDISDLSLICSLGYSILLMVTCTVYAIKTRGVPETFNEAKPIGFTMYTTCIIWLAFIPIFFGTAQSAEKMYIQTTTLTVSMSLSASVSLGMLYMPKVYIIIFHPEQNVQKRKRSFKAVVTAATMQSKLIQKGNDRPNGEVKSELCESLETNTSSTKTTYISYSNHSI
`CCc1ccc(OCc2nnc(SCC(=O)N3CCN(c4ccccc4)CC3)o2)cc1` returned a z-score of -0.221.
With `N/C(CCN1CCCCC1)=N/O`, the z-score is 0.164.
Molecule `O=C(Nc1cccc(C(F)(F)F)c1)c1ccco1` came in with a z-score of -0.122.
As for `CCOc1ccc2nc(SCC(=O)NCc3ccc4c(c3)OCO4)[nH]c2c1`, the z-score was -0.154.
In the case of `O=C(NCc1ccc2c(c1)OCO2)C12CN(Cc3ccccc3)CC1C(c1cccc([N+](=O)[O-])c1)=NO2` (centres undefined) it was -0.441.
For `COc1ccccc1NC(=O)CSc1nnc(Cn2nnc(-c3ccccc3)n2)n1-c1ccccc1`, the z-score was -0.183.
For `COc1ccc(C(=O)Oc2c(C)occc2=O)cc1OC` the value was 0.637; for `CCOc1ccccc1C(=O)NCc1ccc2c(c1)OCO2`, -0.084.
Take `CN(C)c1cccc(C(=O)OCc2cc(=O)oc3cc(O)ccc23)c1`: the z-score is 0.124.
For `Cc1ccc2c(Cl)c(C(=O)Nc3cccnc3)sc2c1` the value was -0.0509; for `CN(C)c1cccc(-c2nnc(SCCCC#N)o2)c1`, -0.0637; for `CCc1ccc(/C=C2/SC(=S)N(CC(=O)Nc3nc4ccccc4s3)C2=O)cc1`, 0.628.
Molecule `CCN(CC)S(=O)(=O)c1cc(OCC(N)=O)c(C)cc1Cl` showed a z-score of -0.189.
In the case of `CCOc1ccc(OCC)c(NC(=O)C2CCCN(S(=O)(=O)c3cccs3)C2)c1` (centres undefined) it was -0.183; in that of `O=C(N/N=C/C=C/c1ccco1)C(O)c1ccccc1` (centres undefined), -0.1.
`CC(C)NC(=O)Cn1cc(C#N)c2cc(Br)ccc21` returned a z-score of 0.34.
For `CCOC(=O)c1c(-c2cccc(C)c2)csc1NC(=O)c1c(-c2ccccc2)noc1C` the value was -0.16.
For `Cc1cc(S(=O)(=O)NC2CCCCC2)ccc1OCC(=O)N1CCOCC1` the value was -0.23.
Consider `CCOc1ccc2nnnn2n1`, for which the z-score came to 0.275.
Consider `COC(=O)c1ccc(/C=N/N2CCN(Cc3ccccc3)CC2)cc1`, for which the z-score is -0.196.
For the molecule `OCCCCNCc1ccc(OCc2ccccc2)cc1`, the z-score was 0.0747.
The molecule `CCOC(=O)c1c(NC(=O)CN2CCCCC2)sc2c1CCCC2O` (centres undefined) gave a z-score of -1.23.
The molecule `Cc1ccc(-c2ccc(CCC(=O)O)n2NC(N)=S)cc1` returned a z-score of 0.29.
For `Cc1cc(/C=C(\C#N)C(=O)NCCc2c[nH]c3ccccc23)c(C)n1C` the value was -0.2; for `O=C(Cn1c(-c2cncs2)nc2ccccc21)NCCc1ccccc1`, 0.156; for `CC(=O)Nc1c(O)[nH]c2ccccc12`, 0.0875.
For the molecule `CN(C)S(=O)(=O)c1cccc(C(=O)N2CCc3ccccc32)c1`, the z-score was 0.344.
The molecule `N#C/C(=C/c1ccc(Br)s1)C(=O)NCCc1c[nH]c2ccccc12` had a z-score of -0.112.
`O=C(O)c1cccc(-c2nc3ccccc3[nH]2)c1` yielded a z-score of -0.16.
On to `Fc1ccccc1COc1ccc(Br)cc1CNCc1ccncc1`, for which the z-score was -0.177.
Molecule `CC(C)(C)Cc1nc2ccccc2n1CCc1ccccc1` showed a z-score of -0.203.
As to `CCCCCCCn1ccc(=N)cc1`, the z-score was -0.268.
`Cc1cc(C)n(-c2ccc(N3CCOCC3)nn2)n1`: the z-score came out at 0.137.
The molecule `O=C(CN1CCN(c2ccccn2)CC1)Nc1ccc(Cl)c(C(F)(F)F)c1` returned a z-score of 1.94.
For `Cc1ccc(NC(=O)c2cc(S(=O)(=O)N3CCC4(CC3)OCCO4)ccc2F)cc1` the value was -0.0634; for `CC(=O)Nc1nc2ccccc2n1Cc1ccccc1`, 0.74.
In the case of `CCOC(=O)Cc1csc(NC(=S)NC(=O)c2cccc([N+](=O)[O-])c2)n1` it was 0.802.
As to `CCOC(=O)c1ccc(NC(=O)CN(C)S(=O)(=O)c2ccc(OC)cc2)cc1`, the z-score is -0.199.
Consider `COc1ccc(CCNC(=O)c2ccc(NS(=O)(=O)c3c(C)noc3C)cc2)cc1OC`, for which the z-score came out at 0.22.
For `COC(C(=O)Nc1ccc(S(=O)(=O)Nc2ccc(F)cc2)cc1)c1ccccc1` (centres undefined), the z-score is -0.241.
For `CNS(=O)(=O)c1cccc(C(=O)OCC(=O)NCc2ccccc2)c1` the value was -0.447; for `COc1nc(-c2ccccc2)ccc1-c1noc(-c2ccccc2)n1`, 0.293; for `O=C(Oc1ccccc1)c1ccc(COC(=O)c2cnccn2)cc1`, 0.0495.
The molecule `Cc1nc2c(=O)n(C)c(=O)n(C)c2nc1Cl` returned a z-score of 1.3.
In the case of `Cc1cccc(C)c1OCc1nnc2c3cnn(C)c3ncn12` it was -0.22; in that of `CCOC(=O)c1[nH]c2ccc(F)cc2c1N=C(C)N(CC)CC`, -0.0884; in that of `O=C(CN1CCOCC1)NCCNC(=O)CN1CCOCC1`, 0.404.
As to `Cc1cc(NC(=O)CCCC(=O)N(c2ccccc2)C(C(=O)NC2CCCCC2)c2cccs2)no1` (centres undefined), the z-score worked out at 0.689.
`CCCn1c(C)cc(C(=O)COc2ccc(C)nc2[N+](=O)[O-])c1C` returned a z-score of -0.135.
`CCOc1ccc(C2c3c(oc4cc(C)c(C)cc4c3=O)C(=O)N2CCCN(C)C)cc1OC` (centres undefined) returned a z-score of 0.756.
In the case of `Cc1cc(C)n(-c2nc(NC(C)C)nc(NC(C)C)n2)n1`, the z-score was -1.17.
For `Cc1cccc(C(=O)Nc2ccc(CC(=O)O)cc2)c1` the value was -0.175; for `CC(=O)Nc1nc(COc2ccccc2)cs1`, -0.159.
Consider `O=S(=O)(CC12C3C4C5C1C2C(Br)(C43)C51OCCO1)c1ccccc1` (centres undefined), for which the z-score was -0.0862.
In turn, `CCOc1ccc(C2c3cc(OC)c(OC)cc3CC(=O)N2c2ccc(OC)cc2)cc1` (centres undefined) displayed a z-score of -0.282.
For `COc1ccc(-c2cnnc(N/N=C/C(C)=C/c3ccccc3)n2)cc1` the value was 0.254; for `CC1CCCC(C)N1CC(O)COCC1COc2ccccc2O1` (centres undefined), -0.0598; for `COc1ccc(C(C)=O)cc1CSc1nnc(Nc2ccccc2)s1`, -0.404.
With `COc1ccc(OC)c(C2CC(=O)N3CN(c4cccc(Cl)c4)CSC3=C2C#N)c1` (centres undefined), the z-score is 0.205.
Consider `CCC1(C)CC(c2csc(N)n2)CCO1` (centres undefined), for which the z-score came out at 2.98.
`COc1ccc(/C=C/C(=O)c2ccccc2O)cc1CN1CCOCC1`: the z-score worked out at 0.0524.
With `CCCCC(CC)Cn1c(N)c(C#N)c2nc3ccccc3nc21` (centres undefined), the z-score was -0.274.
For `CS(=O)(=O)N(CC(N)=O)c1ccc2c(c1)OCO2`, the z-score was -0.00195.
With `COc1ccc(C(CC(=O)O)NS(=O)(=O)c2ccc(C)cc2)cc1` (centres undefined), the z-score was 0.145.
In the case of `CC1SC(=NC(=O)C(C)N2C(=O)c3ccccc3C2=O)NC1=O` (centres undefined) it was 0.0917; in that of `CC(C)=C(NC(=O)c1ccccc1)C(=O)N/N=C(\C)c1ccccc1O`, -0.0548.
For `COc1ccc(-n2ncc3c(=O)n(CC(=O)OCc4ccccc4)cnc32)cc1` the value was -0.323.
As for `COc1cc(NC(=O)COC(=O)CNC(=O)c2ccc(Cl)cc2)c(C)cc1[N+](=O)[O-]`, the z-score is -0.644.
As to `COc1cccc(O[C@@H]2O[C@@H]3COC(C)(C)O[C@H]3[C@H](O)[C@H]2NC(C)=O)c1`, the z-score was -0.144.
`CCOc1ccc(C(=O)CCC(=O)O)cc1` displayed a z-score of -0.338.
Molecule `CC(=O)Nc1ccccc1OCC(=O)NC(C)c1ccc(F)cc1` (centres undefined) had a z-score of -0.0422.
`CSc1nnc(-c2ccc(F)cc2)o1` showed a z-score of 0.446.
For `CCOC(=O)/C(=C/Nc1ccccc1)[N+](=O)[O-]` the value was -0.385; for `CC(C)(C)CC(C)(C)NCC(O)COc1c(F)cc(Br)cc1F` (centres undefined), active: 3.25.
`COc1ccc(OC)c(NC(=O)CSc2nnnn2-c2ccc3c(c2)OCO3)c1` registered a z-score of -0.256.
With `O=C(Nc1nc(-c2cccs2)c(-c2cccs2)s1)C1(c2ccccc2)CC1`, the z-score is -0.247.
In the case of `O=C(COC(=O)c1ccc(CNS(=O)(=O)c2ccc(F)c(Cl)c2)cc1)NCC1CCCCC1` it was -0.324; in that of `O=C(OCCNC(=O)c1ccc2ccccc2n1)c1cccnc1`, 0.0581.
On to `Cc1ccc(S(=O)(=O)N2CCN(Cc3ccccc3)CC2)c(C)c1N(C)S(=O)(=O)c1ccccc1`, for which the z-score is -0.0147.
`O=S(=O)(c1ccc2ccccc2c1)N1CCC(c2nc(-c3ccncc3)no2)CC1` displayed a z-score of 0.107.
The molecule `CCCCNC(=O)CSc1nc2ccccc2n1S(=O)(=O)c1ccc(Cl)cc1` showed a z-score of -0.0179.
`O=C(COc1ccc(Br)cc1)N1CCCCCC1` returned a z-score of -0.191.
`O=C(N/N=C/c1ccc2c(c1)OCO2)c1cc(-c2ccccc2)nc2ccccc12` came in with a z-score of 0.6.
For the molecule `COc1ccc(-c2[nH]c(-c3ccc(C)cc3)nc2SCC(=O)Nc2nccs2)cc1`, the z-score is -0.557.
In turn, `O=C(N/N=C/c1ccc(COc2ccc(Br)cc2)o1)c1ccco1` had a z-score of -0.299.
For `CCCOc1ccc(N2C(=O)CC(N(CCc3ccc(OC)cc3)C(=O)c3cccc(F)c3)C2=O)cc1` (centres undefined) the value was -0.214.
`CNS(=O)(=O)c1cccc(C(=O)Nc2cccnc2)c1` displayed a z-score of -0.0126.
As to `OC(COCC1CC=CCC1)Cn1cnc2ccccc21` (centres undefined), the z-score is 0.36.
In the case of `NC(=O)c1ccccc1NC(=O)CN1CCOCC1`, the z-score was 0.829.
For `CCC(=O)Nc1nc2ccc(S(C)(=O)=O)cc2s1` the value was 0.244; for `Cc1cccc2cc(CN(Cc3ccco3)C(c3nnnn3CCc3ccccc3)C(C)C)c(=O)[nH]c12` (centres undefined), -0.514; for `CCc1nnc(NC(=O)CSc2nnc(-c3ccncc3)n2C)s1`, -1.78.
In the case of `CCc1cccc(C)c1NC(=O)CN(C)Cc1cccc(F)c1` it was -0.571; in that of `Cc1ccc(S(=O)(=O)N2CCC(C(=O)NC3CCCCCC3)CC2)cc1`, -0.0732.
For `CCN(Cc1ccccc1)Cc1cccc([N+](=O)[O-])c1` the value was -0.393; for `O=C(CCCSc1nc2ccccc2[nH]1)NCc1ccccc1`, -0.307; for `CCc1ccc(N(CC(=O)NC2CCCC2)S(=O)(=O)c2c(C)noc2C)cc1`, -0.269.
In the case of `CN1C(=O)c2cccc(NC(=O)Cc3ccccc3)c2C1=O`, the z-score is -0.224.
`CC(C)CNC(=S)NNC(=O)c1ccco1` had a z-score of -0.0344.
With `CCC(=O)N1CCc2cc(S(=O)(=O)NCCN3CCC(C)CC3)ccc21`, the z-score worked out at 0.0953.
Molecule `CCN(C(=S)NC(=O)CCc1ccccc1)c1ccccc1` returned a z-score of 1.5.
The molecule `CCCOc1ccc(/C(CC)=N/NC(=O)C2(C)CC2(Br)Br)cc1` (centres undefined) gave a z-score of -0.0774.
In the case of `COc1cccc(NC(=O)c2ccc3snnc3c2)c1` it was 0.779; in that of `COc1ccc(C)cc1NC(=O)c1cc2ccccc2o1`, 0.00863; in that of `Cc1cc(C)n(CCSCC(=O)O)n1`, 0.237.
In the case of `O/N=C1\CCCc2oc3c(c21)CCCC3` it was -0.00941; in that of `CCC(C)C(=O)N1c2ccccc2C(=C2SC(C(=O)OC)=C(C(=O)OC)S2)C(=S)C1(C)C` (centres undefined), -0.158.
The molecule `C/C(N)=C(/C#N)C(=O)CSc1nc2cc(Cl)ccc2s1` gave a z-score of 1.39.
`COc1ccc(NC(=O)CSc2nnc(-c3ccccc3C)n2N)cc1` gave a z-score of 0.119.
In the case of `CCCNC(=O)c1ccc(-c2nc3ccccc3s2)s1`, the z-score is -0.0895.
`CCN(CC(=O)Nc1ccc2c(c1)CCC2)Cc1nc2ccccc2c(=O)[nH]1` yielded a z-score of -0.577.
As to `Nc1nnc(SCc2ccc(F)cc2Cl)s1`, the z-score worked out at 0.48.
Turning to `CN(C)c1ncc(S(=O)(=O)c2ccc(Cl)cc2)c(-c2ccc(Cl)cc2Cl)n1`, the z-score is -0.12.
For `CCOc1cc(S(=O)(=O)NCc2ccco2)c(OCC)cc1-n1cnnn1`, the z-score was -0.809.

The values above are taken from PubChem BioAssay AID488969 (Vanderbilt High Throughput Screening Facility, 2010).
